Measurements published in the supplement of paper PMC3334620.
The full ranking holds about 33,000 sequences; the median of “E-score (-0.5 to 0.5)” is about -0.04, and the highest 2% start at about 0.36. This is one part of the list.

Biological target: T1, Hmlalpha2 (UniProt P0CY09)
T1 sequence: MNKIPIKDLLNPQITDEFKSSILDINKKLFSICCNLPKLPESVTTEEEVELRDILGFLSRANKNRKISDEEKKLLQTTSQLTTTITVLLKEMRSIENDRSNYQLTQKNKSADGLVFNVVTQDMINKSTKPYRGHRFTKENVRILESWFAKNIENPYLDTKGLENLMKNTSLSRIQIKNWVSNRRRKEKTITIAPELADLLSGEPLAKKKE
Test: PBM E-score (8-mer binding enrichment) (E-score (-0.5 to 0.5)); higher = stronger / more preferred TF binding; most listed sequences are background and not binding sites
Details: protein concentration: 200 nM; construct: GST-full length
Method in brief: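 Each ungapped eight-base word and its reverse complement, pooled, received an E-score from the Universal PBM Analysis Suite. Underlying scans, normalised with masliner, recorded fluorescent anti-GST bound to GST-tagged yeast transcription factors. These were applied at about 100-200 nM to universal all-10-mer Agilent arrays double-stranded by primer extension.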

Sequence	PBM E-score
CGCTGTCC	0.0698
CAAAAGTG	0.0155
GAGACTCC	-0.184
AGGAGAGA	-0.063
AGGGGAGA	-0.237
AGTGTACA	0.301
TTTTAAAA	0.227
CTTCCAAC	-0.0326
CGCAGTCC	-0.00615
GAGGCTTA	-0.0911
CGGTAGGC	-0.109
GTGGCTTA	-0.0398
CGTAGCAA	0.137
GAGCTTTA	0.0849
GCGGGACC	-0.204
AAGCTGCT	-0.0459
TAGACGGA	-0.0604
ACACGTAG	0.351
ACCTCACT	-0.0314
CCTCGAGA	0.00388
ACACATAA	0.364
TCTCGGCA	-0.135
CCCCTTAA	-0.18
AACGGGAG	-0.123
TCACGCGA	0.118

Sequence	PBM E-score
GCACGCAC	-0.213
GTCCCGGA	-0.206
ACCGAATA	0.143
CAAGACGG	-0.201
CAGATGGG	-0.169
ACCATCGT	-0.151
GAGTTTTA	0.125
AGCACAAA	0.105
CACCATGC	-0.0851
CCCGACGA	-0.065
ATTGATAA	0.0794
CCTAGTAG	-0.0432
CCTGGTAA	-0.0235
CGGCGTTC	-0.129
GCGGAATA	0.0517
GCATGAAC	0.104
CGCGTCTC	0.0746
TCAGGACA	-0.0605
CATCGCAC	-0.117
GACCGTTA	-0.142
GCGGTAGA	-0.216
CGCATACA	0.227
TATACAGA	0.251
ACTCTTAT	0.0802
GGCGTTCA	-0.0183

Sequence	PBM E-score
ACCTAAAA	-0.0182
ACCCACTG	-0.203
CAGTACCC	-0.101
TATTACCA	0.206
CCAGTAGG	-0.239
ACGAATAG	-0.18
CTCCTAGC	-0.157
ACTCTCCG	-0.0228
ACACTACA	0.397
CGTGACGA	-0.0347
TCCCGCAA	-0.0413
GATCACGC	0.125
GGAGTTGA	0.00752
ACGGAGGC	-0.273
CGAGTCGC	-0.28
AAGCGCAT	-0.04
GACAACAC	0.319
ACCAATTA	0.195
TAGTACGA	0.0711
TATAGTAA	0.234
CCCCCCTC	-0.375
ACCACCAA	-0.235
ATGTGAAA	0.222
GCTGTAGA	0.193
CTCAGTGA	-0.203

Sequence	PBM E-score
AAGTGCTC	-0.268
ACAATTCT	0.156
ATGATCAG	-0.0692
TCGCATCA	-0.126
GAGTATCA	0.00173
CAGTAGTA	0.135
CATAGACC	-0.163
GAGTATCC	-0.135
ATGCTGTA	0.136
GGGTTCAC	-0.153
GGGATCTA	-0.168
CTAACAGC	-0.129
AACGCAGT	0.111
TCGTCCCA	-0.0293
ATAGCCGA	-0.0737
ATTTGTAA	0.344
AATATATA	0.258
CAGCCCTA	0.0886
AGGACCCG	-0.23
ATTTCGTG	0.0895
GAACCTTA	-0.137
AGTAATGG	0.124
ATGGTTGG	-0.184
AATCGGAA	-0.00222
AGCTTCCT	0.0723

Sequence	PBM E-score
AAAACCGT	0.226
GGGGAGGA	-0.38
CTTCTACA	0.32
CGCCAACA	0.0904
CTTGTAAA	0.452
GCAGGGAA	-0.18
AGTTCGCG	-0.147
ATAAAGCG	0.0354
CAGGGTGC	-0.308
AAGCAACA	0.151
GATGAGAA	0.0348
CCGTCCGC	-0.332
AGAGGTTG	-0.0711
GTACCATA	-0.00836
AAATAGAC	-0.0652
CGTACGTC	0.197
GTCCAAAC	-0.108
AACAGAGG	0.0102
ACTCACAC	0.00918
GGCTCCAC	-0.259
GCGAGGAA	-0.0112
GACGTCCA	-0.0712
CCAGGACA	-0.0628
TATGTTGA	0.364
ACGCAATA	0.325

Sequence	PBM E-score
GATGGTCC	-0.0351
GCTCGAAC	0.0912
ACACTTAC	0.209
AGTCAAGG	-0.124
CGGTTAGA	-0.23
CCCCGAGG	-0.234
CATGAAGC	0.102
AACGCCCG	-0.095
ACATTGCA	0.239
ACGTTCTG	-0.00331
CTAGAACC	-0.163
ATCCGCAT	0.0455
GGGCCGAA	-0.287
CGATCTCA	-0.0804
AAACTTGT	0.213
AAACACTA	0.257
GTATACCA	0.0822
AAAAGGGA	-0.183
CTCCCCGC	-0.0707
AGGAAGTA	-0.011
AAAAAGAT	-0.00444
CCTAACGA	-0.0891
AACATGCG	0.399
ACTAGAAG	-0.0727
GTTCCGTA	0.164

Sequence	PBM E-score
AGGATGCG	-0.148
GACGCGTC	0.0547
CGGCTAAA	-0.0334
AGAATTCG	-0.042
TGTTTGAA	0.22
GGGGGTCA	-0.353
ACGTGGTG	0.0942
CGCGTTGC	0.273
CTTGACCA	-0.0171
AGTTTTAC	0.294
ATGGCACC	-0.28
CGGGTGCC	-0.166
CAGTTGAA	-0.0594
ACGCATCA	0.19
ACTGTAAC	0.102
CGGTCAAG	-0.208
AAGTAGCG	-0.0783
CAAGTTCC	-0.0347
AGATAGAG	-0.0305
GAACCAGA	-0.0935
GGCCCCGA	-0.109
GCATCGGC	-0.132
GGCGGAGA	-0.0452
GTCTAAGA	0.0813
GTAGGTTA	0.107

Sequence	PBM E-score
GCGTACCC	-0.151
ACCTTTAT	-0.105
GTAAGAGA	0.153
CTGGGTTC	-0.0163
AGGAGACA	0.00781
CAATTCGC	0.103
CACTGCGA	-0.0249
ACGTGCTA	0.212
CTTCTCAA	-0.134
GTAATGAC	0.276
CTCTATTC	-0.172
GTTTTACA	0.408
ATCCACGC	-0.201
CGATATAC	0.0862
GGTCCCTA	-0.0695
ACCGGAGA	-0.308
CTGTCGTA	0.0261
GCCCTCAA	-0.242
CGTAGAGA	0.0605
CTCGCCGC	-0.122
AACCCGAG	-0.0715
CTCTAGCC	-0.0817
ATCCAGGC	-0.297
GGAAGCCC	-0.268
CCGAAGAC	-0.199

Sequence	PBM E-score
CGCGTTGA	0.301
CTCCTGGC	-0.199
AACTCTCA	-0.0285
AGTAAGAT	0.0594
GACTGGAA	-0.203
CCCACAAA	0.0047
CGGAGAAG	-0.358
CTTACGGA	-0.216
AAATAGTG	0.21
CATCAAAC	-0.0104
GGGTTGGA	-0.133
CAGTGGGA	-0.193
CCAGTCGA	-0.139
AATCGGAT	0.0614
GGGAACGA	-0.151
AGTCTTCG	-0.0117
GATCTACA	0.345
ACAGACCT	0.00306
AGTACCCG	0.0456
ACGGTTGA	-0.0172
CAAAGGTC	-0.233
AAAATTCA	0.2
AGGGCAGA	-0.21
ACCCTGGA	-0.235
TCTACCAA	0.066

Sequence	PBM E-score
ATCGAGCG	-0.0213
CCCTGTCA	-0.0577
CGAACCAG	0.0425
GGTTGTTA	0.294
AATGCAAT	-0.07
TAAGTATA	0.239
ATCACCGA	-0.0274
TCCCCAGA	-0.194
ATAGACCA	-0.255
GCGAGTAA	0.16
CATTGCGC	-0.0675
GGCACCAC	-0.215
AATTCCCT	-0.108
CAAGCTCC	-0.197
AACTGTGC	0.0396
GTGCACTA	-0.0564
CACTAGTC	-0.172
TCAGAACA	0.196
GCTGTCAA	0.0865
AAGGAAGG	-0.0177
CCCACGGG	-0.144
CGGTAAGA	-0.119
AAGTGAGT	0.0309
ACCAGTGC	-0.164
AGTAATAC	0.211

Sequence	PBM E-score
ACCTCTAG	-0.0295
AAAGTAAC	0.137
GGCGCAAC	-0.0658
AGTGAATA	0.183
ACGCCCAA	0.0228
CGGCTGGA	-0.33
AACACACC	0.327
ATATTGCC	-0.0977
ACAAAGTA	0.268
AGTACATC	0.233
CGACAGTA	-0.128
AGGCGCCC	-0.316
TGCCCCCA	-0.311
CCAGTTGC	-0.368
ATCATTAA	0.23
ACAGCGAA	-0.00161
TGAGAGCA	-0.212
CCCCTCCG	-0.0756
AAGTGTTG	0.238
AACCAATA	0.132
TACAGTCA	0.0807
AACGAACC	0.036
CGCTCTGA	-0.135
ACGAAGAC	-0.216
CCCCGGTC	-0.364

Sequence	PBM E-score
ACCGTTCG	-0.0451
CGTGGCTA	-0.182
CATCAGCA	-0.151
GATCCATC	-0.112
AATCAATA	0.126
CATTGGGA	-0.134
TACGCCAA	-0.0474
AAAGGGCG	0.109
CCCGCCAC	-0.152
CGATACAC	0.119
CTTCGTCA	0.0527
CGCCGAGA	-0.302
CCCGATTC	-0.0455
AACAAAGT	0.185
ATAAATCC	-0.0583
ATTTGAAC	0.229
ACACTGAC	0.164
CGTCAGCA	-0.0588
AGTACTCC	-0.31
ACACGGGC	0.325
AACAGTCT	0.0162
AATTTTCT	0.0164
GATCTAAC	0.0316
AATATATG	0.105
GCTGCCTA	-0.0846

Sequence	PBM E-score
ACGGGTGC	-0.136
AAATCTAC	0.244
CGCCTTTA	-0.105
CAATTATA	0.119
CCAGTCTA	-0.196
GCTTGTGA	-0.0542
CGGTAGTA	0.108
ACACCTAG	-0.163
CGGCACGA	-0.0638
ACCTGTCA	-0.078
CACCTATG	-0.0895
ATAGATGG	-0.225
CTGCTCTA	0.039
GCGTGCTA	0.0715
CATGTTCC	0.221
AAAGCGGT	0.0168
ATGTTCGC	0.0726
CACGCTGC	0.0898
ACTTAACG	0.14
CCTTCGAC	-0.0842
GATCTCTA	-0.206
CAAGAGGC	-0.133
AGGTCCAC	-0.29
GAGCGGCC	-0.185
ACAAGCGA	0.112

Sequence	PBM E-score
CCTGATAC	-0.0102
CAGTGTTC	-0.0228
AAATCTGT	0.0323
AAAATAGT	0.0776
AGCCCAAG	-0.35
CCACTGCG	-0.243
ATCTCGTC	-0.0442
ACCCCCGG	-0.368
GGAACACA	0.162
AAGAGCGC	-0.0388
CGTTAAAA	0.272
CGGGTAAG	-0.133
ACTATCCC	-0.386
GCACCTCC	-0.361
CTTGGAGC	-0.214
GCCGTATA	0.0926
CATGGAGC	-0.0239
AGGCGGCG	-0.0131
CACTGCCC	-0.128
